PubChem BioAssay AID624296 (National Center for Advancing Translational Sciences (NCATS), 2012)
The whole screen tested about 350,000 compounds, of which about 9,900 (2.8%) were called active. This list was built around the results that the source calls inconclusive (neither active nor inactive); the mix of calls is not that of the screen. Calls follow the shape of the dose curve; as a rule, active = well fitted activation curve with a large enough effect; inconclusive = small, poorly fitted or top-dose-only effect; inactive = no such curve, though single readings can be large or run the other way. No potency is given beside an inconclusive call; the fits are too rough.

Experiment: A quantitative high throughput screen for small molecules that induce DNA re-replication in MCF 10a normal breast cells. Also: nearly all actives have a fitted effect of over 50% in size.
Conditions: MCF 10A DNA re-replication, Hoechst nuclear intensity, 48 h; series mostly up to 46.1 µM
Potency is read from the fitted curve at half-maximal effect; tags tell the direction and shape of the fitted curve.

SMILES | Potency
CC(=O)Nc1ccc(NC(=O)CN(c2cc(Cl)ccc2Cl)S(C)(=O)=O)cc1 | inconclusive [activator, full curve, poor fit]
CCOC(=O)c1sc2nc(C)nc(NCc3ccccc3)c2c1C | inconclusive [activator, single point]
CC[N+]1(C)CCC(O)(/C=C/c2ccccc2)C(C(=O)/C=C/c2ccccc2)C1 (stereo not drawn) | inconclusive [activator, full curve, poor fit]
Cc1cc(NCc2ccccc2Cl)n2nnnc2n1 | inactive
Cc1cccc(/C=N/NC(=O)c2cc(-c3cccnc3)nc3c2c(C)nn3-c2ccccc2)c1 | inconclusive [activator, partial curve, poor fit]
N#Cc1c2n(c3c(=O)n(Cc4ccccc4Cl)cnc13)CCCC2 | inconclusive [activator, full curve, poor fit]
O=C(c1ccco1)N1N=C(c2ccc(Br)cc2)CC1(O)C(F)(F)F (stereo not drawn) | inconclusive [activator, single point]
CCCOC(=O)C1=C(C)NC(=O)NC1c1cc2c(cc1Br)OCO2 (stereo not drawn) | inactive
OCCOCCn1c(C(CO)Nc2nc(-c3cccc(Br)c3)cs2)nc2ccccc21 (stereo not drawn) | inconclusive [activator, partial curve, poor fit]
CCOC(=O)C1CCN(c2ncnc3c2oc2ccc(Cl)cc23)CC1 | inconclusive [activator, single point]
O=C(Cc1ccc(Cl)c(Cl)c1)N1CCOCC1 | inactive
O=S(=O)(c1ccc2c(c1)OCCO2)N1CCN(c2ncnc3sccc23)CC1 | inactive
COc1cccc(OC)c1NC(=O)Cc1nn(C)c(=O)c2ccccc12 | inactive
O=S1(=O)C=C(Sc2nnc(-c3ccccc3)o2)c2ccccc21 | inconclusive [activator, full curve, poor fit]
COCCCN1CN=C(NS(=O)(=O)c2ccc(C)cc2)NC1 | inactive
NS(=O)(=O)c1ccc(NC(=O)COC(=O)c2cc([N+](=O)[O-])ccc2Cl)cc1 | inactive
COc1ccc(C(=O)Nc2ccccc2C(=O)NC(Cc2ccc(O)cc2)C(=O)NNC(=O)c2ccc(C)cc2)cc1 (stereo not drawn) | inactive
OC(CNCc1ccc(F)cc1)(c1ccc(F)cc1)c1ccc(F)cc1 | inconclusive [activator, single point]
CCCCn1c(SCC(=O)Nc2cc(C)on2)nc2c1c(=O)n(C)c(=O)n2C | inactive
Cc1nc2c(ccc3nc(NC(=O)Cc4cccc5ccccc45)sc32)s1 | inconclusive [activator, single point]
Cc1ccc(SC(CC(=O)c2ccc(C)cc2)C(=O)O)cc1 (stereo not drawn) | inconclusive [activator, single point]
COc1ccc(Cl)cc1C(=O)C1CCCN(Cc2cnc(N3CCOCC3)s2)C1 (stereo not drawn) | inconclusive [activator, single point]

SMILES | Potency
COc1ccccc1NC(=O)Cn1nnc(-c2ccccc2NC(=O)c2ccco2)n1 | inconclusive [activator, full curve, poor fit]
C=CCSc1nc2sc3c(c2c(=O)n1CC)CCc1ccccc1-3 | inconclusive [activator, full curve, poor fit]
Cc1ccc(C2C(C#N)=C(N)Oc3n[nH]c(-c4cccs4)c32)s1 (stereo not drawn) | inactive
O=C(Nc1ncc(S(=O)(=O)c2ccc([N+](=O)[O-])cc2)s1)c1ccc2ccccc2c1 | inconclusive [activator, single point]
O=C(Nc1ccc(C(F)(F)F)cc1)c1ccccc1-n1cnnn1 | inconclusive [activator, partial curve, poor fit]
Cc1nc(NC(=O)C2CC2)sc1C(=O)Nc1ccccc1Cl | inactive
COC(=O)C(c1ccccc1Cl)N1CCc2sccc2C1 (stereo not drawn) | inactive
O=C(COC(=O)c1ccccc1Nc1ccccc1)Nc1ccccc1 | inconclusive [activator, partial curve, poor fit]
COC(=O)c1ccc(C23CC4(C2)[C@H](CN(C)[C@@H]4c2ccccc2)C3c2ccc(Cl)nc2)cc1 (stereo partly drawn) | inconclusive [activator, partial curve, poor fit]
Cc1cc2cc(C(c3nnnn3C3CCCC3)N(Cc3cccnc3)Cc3ccco3)c(=O)[nH]c2cc1C (stereo not drawn) | inconclusive [activator, single point]
CSc1nc(SC(C)C(=O)O)c2c3c(sc2n1)COC(C)(C)C3 (stereo not drawn) | inactive
O=C(O)CC(C(=O)O)n1nc(-c2ccccc2)cc1-c1ccccc1 (stereo not drawn) | inconclusive [activator, full curve, poor fit]
Cc1ccc2c(Cl)c(C)c(N3CCCCC3)nc2n1 | inconclusive [activator, partial curve, poor fit]
CN(CCc1ccccc1)C(=O)c1cccc(NC(=O)Cc2cccc(NC(=O)C3CCN(C(=O)C4CC4)CC3)c2)c1 | inconclusive [activator, partial curve, poor fit]
O=C1C=C(C2CCCCC2)C(=O)c2ccccc21 | inconclusive [activator, single point]
COC(=O)CCC(=O)N1CCC(CCC(=O)NCc2ccc(F)cc2)CC1 | inactive
O=C(OC(C(=O)NCc1ccccc1)c1ccccc1F)c1ccco1 (stereo not drawn) | inconclusive [activator, partial curve]
O=C(c1ccc([N+](=O)[O-])cc1[N+](=O)[O-])N1CCN(C(=O)C2CCCO2)CC1 (stereo not drawn) | inconclusive [activator, full curve, poor fit]
O=C(/C=C/c1ccco1)NC(=S)Nc1cccc(-c2nc3ccccc3s2)c1 | active: 5.8 µM
COc1ccc(/C=C/c2nnc(NC(=O)C(C)C)s2)cc1 | inconclusive [activator, single point]
Cc1ccccc1/C=C/c1nc2ccccc2c(=O)n1Cc1ccccc1 | inactive
